From publication PMC12136788 come the findings set out here.

B1: chr5:145543945:145543946:-_ENSG00000133706_ENST00000545646|hu_hu|hu_hu_hu_mus_True|78_108 (ssRNA)
RNA: GGGAGUUCUACAGUCCGACGAUCCUGAAUAGCCAGUGGUGGGAAAUAAUCAAGCCAAUGUUCUGCUUCAGAAAACUUCACUAUGUCGUCAUCAGAGAGCCCAAGGGAUUUCAUAAUGUCCCACUGGUACUUAGAAGAUCCUGCCAACAGAGGAUUGAGCAUCA
B2: chr8:95500983:95500984:-_ENSG00000164944_ENST00000437199|hu_hu|hu_hu_hu_mus_True|1_58 (ssRNA)
RNA: GGGAGUUCUACAGUCCGACGAUCAGAACACAUCUAUCGAGUAAAGGACCGUACAUGACGGCCUCUACCACUGCCUCCCACUAACAACUUUCCUCUCGAGCCUCCACUGCCGCUAUUUGUACUAGCCCAGGACGGUCCCAAGUCCAACAGAGGAUUGAGCAUCA
B3: chr12:86311719:86311720:-_ENSMUSG00000042350_ENSMUST00000043169|mus_mus|FALSE|FALSE (ssRNA)
RNA: GGGAGUUCUACAGUCCGACGAUCGGCUGCGGCGUGAAGAAAAACGUUACCCGAACGGGGGCUGCAACGUGGCCAAGUCCUAGUUCUGGGGUCCGAGGAAGCAGCGGCCUCAUCCAGCACAAAUCCUACCCUCCACCCGCCCCCCAACAGAGGAUUGAGCAUCA
B4: chr5:52541547:52541548:-_ENSMUSG00000029169_ENSMUST00000031061|mus_hu|FALSE|FALSE (ssRNA)
RNA: GGGAGUUCUACAGUCCGACGAUCUACUGAGACAGAAGAUUGUGUCUACAUAAGCACAAGUUGUAACAUUUCACAACUUCUAAAAGGAAUGUCAACAAUUACAACGAUCAUGCAUACCAUGGUCGAUAAUCACAUUUUAGAAGCCAACAGAGGAUUGAGCAUCA
B5: 63393171_63394198_5434_CDS_ENSMUSG00000030451_ENSMUST00000076226|mouse|control|control (ssRNA)
RNA: GGGAGUUCUACAGUCCGACGAUCUCCCGCCGGGUUCUCAUUGGUAAUGGUUUGUAGGGGAACAGGCUGGAUACCCAGCUCUUUAAACCUGGCACUUGCAUCCAUCAGAACAGAUCGAAUAUUCUGAACUGCCCAAGCAUACAGCAACAGAGGAUUGAGCAUCA
B6: chr13:81889239:81889240:+_ENSMUSG00000051098_ENSMUST00000057598|mus_hu|FALSE|FALSE (ssRNA)
RNA: GGGAGUUCUACAGUCCGACGAUCCAUGGCAAAAGUAGAAACUUUGUGACAUAUCCCAGCUUUUGAAAUAUAGUUAGAAGCCAAUCGAAAAAGCCUUUCAGCACCAAAGGUAUUGAAGUGCCCAGGAAGCACCUUCUCUACCAGCAACAGAGGAUUGAGCAUCA
B7: chr3:49547525:49547526:-_ENSMUSG00000037892_ENSMUST00000035931|mus_mus|FALSE|FALSE (ssRNA)
RNA: GGGAGUUCUACAGUCCGACGAUCGUUCAUAUGCUAAAAAUACAAGCAAAACUGUGAUAGCAUGCACAAGAGACAAAAGCUAAAGGUGAAUAAUUAUAGCCAAAAAAAGAGAGACAAUGCAGUCGAUACAAAUGUUCAAGUAUGCAACAGAGGAUUGAGCAUCA
B8: chr1:60041781:60041782:+_ENSMUSG00000041040_ENSMUST00000036540|mus_hu|mus_mus_mus_hu_False|58_68 (ssRNA)
RNA: GGGAGUUCUACAGUCCGACGAUCAAGUUUACAAUAGUAAAGUAAAUGCAGUAGUGGCAAAUUUUCUUUACUUUAGUUUCCUAAAAGAAAAUCUUUAUAACCCAGUCCUAGUCUUGGACAUAGUGAAAGCUAUAAAUUCUGACUCAACAGAGGAUUGAGCAUCA
B9: chr11:13408652:13408653:+_ENSG00000133794_ENST00000403290|hu_mus|motif|central (ssRNA)
RNA: GGGAGUUCUACAGUCCGACGAUCACUUCUUUGUAGUGUAAAAACACCAUACAUCUGAAAUGACCAUUUUGCAUAUAAAAGCGGCCAAUGAUGCUUCUGUGCACAAUGAUUAAAAAAUUCAACACAAACAAAAUCCAAAAUAUACAACAGAGGAUUGAGCAUCA
B10: chr5:77764768:77764769:+_ENSMUSG00000029250_ENSMUST00000031167|mus_hu|FALSE|FALSE (ssRNA)
RNA: GGGAGUUCUACAGUCCGACGAUCGACACCAAGGAUCAUUGAGGGAUGAAUCUCACAGUGUGUAUAUGUGGAACAAUAAGCUACUUCUUUCUCCUGUAAAUCAUCUGGAGUCAUUGCAAGCAUCACUGUUUCUUCUUCCAGGGUCAACAGAGGAUUGAGCAUCA
B11: 54240379_54240499_3742_CDS_ENSMUSG00000061603_ENSMUST00000095737|mouse|control|control (ssRNA)
RNA: GGGAGUUCUACAGUCCGACGAUCUUGAUCAAGGUCGUUGGAUUCUUCAUGCACACUAAUGAGUUUGUUACUUAUGUCUGUCUCAUCCCAUUCCAGGGCAUCCUCACUCAUUCCAUUCAGGUCCAUCAAGCCAGGGUCAAUCACCAACAGAGGAUUGAGCAUCA
B12: chr7:141445308:141445309:+_ENSG00000106028_ENST00000265304|hu_hu|hu_hu_hu_mus_False|28_48 (ssRNA)
RNA: GGGAGUUCUACAGUCCGACGAUCUAUGAUUGUUGUUGCUUGCCGCCUCACAUUGUUUUUAUCCAUGUACUCGCCAUAGUCCACUUUCCCUUCCAAAAAUAUACGAGACCCCUUUUUCACAUACUGAUAUGCCACAUCUCUGAGCAACAGAGGAUUGAGCAUCA
B13: chr11:18503389:18503390:-_ENSG00000074319_ENST00000251968|hu_hu|FALSE|FALSE (ssRNA)
RNA: GGGAGUUCUACAGUCCGACGAUCAUUUUCCAUUUUUUCCAGAGCAGAACUGAGUUCUUCAUCCUUCUUUUUCAAAAGUUCUAUGUUUUUAUCAACCUCGGCUACUUCUUGAUCUAAACGGGUAACCAUCUCUUCCAGUUUCUGCAACAGAGGAUUGAGCAUCA
B14: chr11:68312385:68312386:+_ENSG00000110075_ENST00000393800|hu_hu|motif|central (ssRNA)
RNA: GGGAGUUCUACAGUCCGACGAUCCUUGCUGAAGAAACUGGCAAGUAGUGGAUUCAAAGGGGAAUCGUUUAGGAGGAAGCGGUAUAAUUUCAUUAGCAAGGAUUCAUCUUCUCCCAGUCUAUCAUUCAUCUGGGAGACAUCAGACAACAGAGGAUUGAGCAUCA

The list shows a part of the results.

The assay has as its target T1, UNK ZnF1-3 (human, UniProt Q9C0B0 31-174).
T1 sequence: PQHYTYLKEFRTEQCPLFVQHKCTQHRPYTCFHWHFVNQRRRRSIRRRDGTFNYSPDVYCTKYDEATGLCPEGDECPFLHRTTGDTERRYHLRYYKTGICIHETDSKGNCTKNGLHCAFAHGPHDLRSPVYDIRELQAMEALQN
Nature of the assay: nsRBNS (natural sequence RNA bind-n-seq); RBNS binding buffer (assumed for nsRBNS): 25 mM Tris pH 7.5, 150 mM KCl, 3 mM MgCl2, 0.01% Triton X-100, 500 ug/ml BSA, 20 U/ml SUPERase-In, 4 C; UNK is unkempt and MSI1 is Musashi-1; names of the RNAs are library labels; protein concentration not given here; high values mean tight binding.
In the case of B1, the binding signal turned out to be 1.22 enrichment R.

Turning to B2, the binding signal is 1.13 enrichment R.

The molecule B3 returned a binding signal of 1.28 enrichment R.

Consider B4, for which the binding signal was 0.996 enrichment R.

On to B5, for which the binding signal was 1.29 enrichment R.

For B6, the binding signal was 1.21 enrichment R.

The molecule B7 had a binding signal of 1.64 enrichment R.

Molecule B8 yielded a binding signal of 0.609 enrichment R.

Consider B9, for which the binding signal was 0.754 enrichment R.

B10 yielded a binding signal of 1.2 enrichment R.

Consider B11, for which the binding signal came to 0.776 enrichment R.

The molecule B12 came in with a binding signal of 0.835 enrichment R.

B13 yielded a binding signal of 0.477 enrichment R.

B14 returned a binding signal of 1.13 enrichment R.
